Measurements taken from a collection of fitness landscapes (doi:10.1126/science.1257360).
Some of the results follow.

B1: PhoQ; a variant is named by its letters at X, in order, P23837 (parent)
chain: MKKLLRLFFPLSLRVRFLLATAAVVLVLSLAYGMVALIGYSVSFDKTTFRLLRGESNLFYTLAKWENNKLHVELPENIDKQSPTMTLIYDENGQLLWAQRDVPWLMKMIQPDWLKSNGFHEIEADVNDTSLLLSGDHSIQQQLQEVREDDDDAEMTHSVAVNVYPATSRMPKLTIVVVDTIPVELKSSYMVWSWFIYVLSANLLLVIPLLWVAAWWSLRPIEALAKEVRELEEHNRELLNPATTRELTSLVRNLNRLLKSERERYDKYRTTLTDLTHSLKTPLXXLQXXLRSLRSEKMSVSDAEPVMLEQISRISQQIGYYLHRASMRGGTLLSRELHPVAPLLDNLTSALNKVYQRKGVNISLDISPEISFVGEQNDFVEVMGNVLDNACKYCLEFVEISARQTDEHLYIVVEDDGPGIPLSKREVIFDRGQRVDTLRPGQGVGLAVAREITEQYEGKIVAGESMLGGARMEVIFGRQHSAPKDE

Variants of: B1
Assay: enrichment ratio after two sorts for PhoP signalling (ratio (wild type AVST 3.29)); higher = more functional
Details: with PhoP (E. coli)

Variant	enrichment ratio
YSVG	≤ 0.25
GPWM	≤ 0.25
DDVL	0.658
DCIR	≤ 0.25
EQFT	≤ 0.25
VMRK	≤ 0.25
TCLA	11.9
HSDV	≤ 0.25
LQPY	≤ 0.25
MNWM	4.81
MCKE	≤ 0.25
RNTD	≤ 0.25
SDQI	≤ 0.25
GIKA	≤ 0.25
MHFW	≤ 0.25
FDEQ	≤ 0.25
KQFK	≤ 0.25
IQVL	≤ 0.25
RKFI	≤ 0.25
YYFE	≤ 0.25
EHSL	≤ 0.25
MAWK	≤ 0.25
HHGE	≤ 0.25
AMCK	≤ 0.25

Variant	enrichment ratio
HTSN	≤ 0.25
PDRY	≤ 0.25
WYDR	≤ 0.25
ATWR	≤ 0.25
PMFH	≤ 0.25
FAKQ	≤ 0.25
SSTI	13.8
SPIN	≤ 0.25
TVSW	7.67
PPIN	≤ 0.25
RCGE	≤ 0.25
SMFC	≤ 0.25
GDLS	≤ 0.25
DHFN	≤ 0.25
NHGC	≤ 0.25
GWAG	≤ 0.25
NLDF	≤ 0.25
VGEV	≤ 0.25
FFGI	≤ 0.25
MKKC	≤ 0.25
IFCW	≤ 0.25
ECFG	≤ 0.25
LYYD	≤ 0.25
RKQL	≤ 0.25

Variant	enrichment ratio
PHRI	≤ 0.25
KMAG	≤ 0.25
LTFY	≤ 0.25
SIYS	0.277
MNHQ	≤ 0.25
RDLF	≤ 0.25
SHHF	≤ 0.25
AKPY	≤ 0.25
TPEN	≤ 0.25
HLQS	≤ 0.25
WQRF	≤ 0.25
QFCM	≤ 0.25
YVNC	≤ 0.25
LPFL	≤ 0.25
AINM	≤ 0.25
DCAK	≤ 0.25
RMPT	≤ 0.25
PLAG	0.499
PHLC	≤ 0.25
ENYF	≤ 0.25
NQDF	≤ 0.25
HELS	0.936
DQGP	≤ 0.25
SSIT	6.16

Variant	enrichment ratio
STDD	≤ 0.25
YPDW	≤ 0.25
WQLM	15.8
YSRN	≤ 0.25
KDVQ	≤ 0.25
HRWF	≤ 0.25
AVQM	≤ 0.25
VMAD	≤ 0.25
PAKT	≤ 0.25
SEEH	10.2
HASS	≤ 0.25
GGWP	≤ 0.25
RAHP	≤ 0.25
TPIN	≤ 0.25
YYSC	≤ 0.25
NYRW	≤ 0.25
YADA	≤ 0.25
QSVQ	≤ 0.25
DMNQ	≤ 0.25
NLDM	≤ 0.25
RPDQ	≤ 0.25
IFFT	≤ 0.25
NMGT	≤ 0.25
VHIS	≤ 0.25

Variant	enrichment ratio
VQIW	≤ 0.25
DYHV	≤ 0.25
HVEP	0.392
NPSG	≤ 0.25
VWYF	≤ 0.25
FHKM	≤ 0.25
HDLV	≤ 0.25
RQLC	≤ 0.25
WIFF	≤ 0.25
SCKT	≤ 0.25
REEF	≤ 0.25
GRFT	≤ 0.25
DAWL	≤ 0.25
MCNR	≤ 0.25
ARPQ	≤ 0.25
ERHT	≤ 0.25
WHFP	≤ 0.25
PLPI	≤ 0.25
KHTW	≤ 0.25
QLID	≤ 0.25
TERF	≤ 0.25
MRQG	≤ 0.25
GVWP	≤ 0.25
MDHN	≤ 0.25

Variant	enrichment ratio
SAFY	≤ 0.25
HLPS	0.388
FSNC	≤ 0.25
HWQI	≤ 0.25
KKSK	≤ 0.25
EYLF	≤ 0.25
TIFP	≤ 0.25
IIND	≤ 0.25
KFDL	≤ 0.25
GARQ	≤ 0.25
VVSY	≤ 0.25
WHAI	≤ 0.25
KILL	≤ 0.25
VKGY	0.318
ACIA	5.55
IHVS	≤ 0.25
INGI	≤ 0.25
FVCY	≤ 0.25
ESCV	≤ 0.25
QRRD	≤ 0.25
QREG	≤ 0.25
VTIN	≤ 0.25
TWMP	≤ 0.25
SDSP	≤ 0.25

Variant	enrichment ratio
SYGC	≤ 0.25
ENKS	≤ 0.25
HMQY	≤ 0.25
MHHD	≤ 0.25
LYVG	≤ 0.25
TIFY	≤ 0.25
NCDR	≤ 0.25
TWDR	≤ 0.25
PNIR	≤ 0.25
FSAR	≤ 0.25
CIIS	≤ 0.25
WPWP	≤ 0.25
AGSN	7.26
SMAE	25.2
LCDG	≤ 0.25
KGEY	≤ 0.25
TKHW	≤ 0.25
TSYW	≤ 0.25
GDRH	≤ 0.25
WITP	≤ 0.25
QMPD	≤ 0.25
KMKT	≤ 0.25
IGTH	≤ 0.25
FIYR	≤ 0.25

Variant	enrichment ratio
VHEN	≤ 0.25
NFDI	≤ 0.25
CICR	≤ 0.25
NRVW	≤ 0.25
ETNR	≤ 0.25
WTFN	≤ 0.25
DKQT	≤ 0.25
DKRV	≤ 0.25
MKQN	≤ 0.25
SLVV	1.38
IEFL	≤ 0.25
EQRA	≤ 0.25
NGEA	≤ 0.25
EDMK	≤ 0.25
NSNH	≤ 0.25
EMMD	≤ 0.25
QACM	≤ 0.25
PRGD	≤ 0.25
GMAP	≤ 0.25
LFFR	≤ 0.25
GGMD	≤ 0.25
GYRS	≤ 0.25
IYRL	≤ 0.25
IYMH	≤ 0.25

Variant	enrichment ratio
YCEL	≤ 0.25
EGPL	≤ 0.25
TEYC	12.6
MKCR	≤ 0.25
GYGF	≤ 0.25
VVIC	≤ 0.25
ECRH	≤ 0.25
IAKF	≤ 0.25
NHKC	≤ 0.25
CLLF	≤ 0.25
VPGC	≤ 0.25
MMQR	≤ 0.25
TQEI	≤ 0.25
HHIF	≤ 0.25
NYYE	≤ 0.25
GPLV	≤ 0.25
MYRD	≤ 0.25
SDPI	≤ 0.25
YKTK	≤ 0.25
SENN	3.72
KGAQ	≤ 0.25
SMNE	≤ 0.25
GKIN	≤ 0.25
NTMF	≤ 0.25

Variant	enrichment ratio
SVNE	≤ 0.25
DRLC	≤ 0.25
GFEQ	≤ 0.25
TAGA	8.8
NNQP	≤ 0.25
VDKI	≤ 0.25
WKMG	≤ 0.25
TPTK	≤ 0.25
VDGA	≤ 0.25
IPGQ	≤ 0.25
NEDS	≤ 0.25
KGRD	≤ 0.25
TPCA	≤ 0.25
FLVS	≤ 0.25
LIMC	≤ 0.25
LDRK	≤ 0.25
LDSG	≤ 0.25
TCRE	≤ 0.25
ECSG	≤ 0.25
PYDQ	≤ 0.25
DMTQ	≤ 0.25
VQCM	2.11
LFKD	≤ 0.25
PCTC	≤ 0.25

Variant	enrichment ratio
WTKH	≤ 0.25
ICWR	≤ 0.25
LPNM	≤ 0.25
QFGC	≤ 0.25
SKFR	≤ 0.25
QYIA	≤ 0.25
VPSR	≤ 0.25
KAHP	≤ 0.25
FGPP	≤ 0.25
RDWY	≤ 0.25
TKIV	11.9
NLYC	≤ 0.25
TLWM	≤ 0.25
PAEN	≤ 0.25
QNCY	≤ 0.25
PCVW	≤ 0.25
HDGP	≤ 0.25
NEHA	≤ 0.25
PRTR	≤ 0.25
AECI	4.88
RNLN	≤ 0.25
HAVV	≤ 0.25
PIGD	≤ 0.25
YADK	≤ 0.25

Variant	enrichment ratio
QHLR	≤ 0.25
EMAN	≤ 0.25
WKHI	≤ 0.25
VKLM	4.07
SLSS	6.86
QSHA	≤ 0.25
AANY	≤ 0.25
RATK	≤ 0.25
INNT	≤ 0.25
TESC	13.3
TYAV	0.611
NYCY	≤ 0.25
GSCY	1.12
LFIW	≤ 0.25
IGFL	≤ 0.25
NSKY	≤ 0.25
FYWP	≤ 0.25
AYNR	≤ 0.25
KIFD	≤ 0.25
KLNT	≤ 0.25
RHFR	≤ 0.25
NHTD	≤ 0.25
NLGE	≤ 0.25
YTVI	≤ 0.25

Variant	enrichment ratio
TWHI	≤ 0.25
HEGN	≤ 0.25
TVSS	11.6
QNLQ	≤ 0.25
IPLD	≤ 0.25
SPLE	≤ 0.25
KRVT	≤ 0.25
AIQS	≤ 0.25
TFDW	≤ 0.25
SSEN	≤ 0.25
STIT	2.03
WKRH	≤ 0.25
ETND	≤ 0.25
DNAE	≤ 0.25
AAIQ	10.8
KMHN	≤ 0.25
IKMA	≤ 0.25
VSDE	≤ 0.25
